# Measurements reported in the supplement of paper PMC9446081.
# Hit rate of the full screen: of about 39,000 compounds, about 220 (0.56%) showed activity. The list shows a part of the results.
# Test system: Escherichia coli K-12 BW25113
# Assay: relative growth (OD600 normalised to plate interquartile mean) (fraction); higher = less growth inhibition, active = 0.2 or less
# Conditions: 50 µM; LB; incubation time: overnight (16-24 h)
# 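Note: static incubation at 37 °C against the wild-type strain, values averaged over two biological replicates.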
row,SMILES,relative growth
1,C[C@@H]1CN([C@@H](C)CO)C(=O)Cc2cc(NC(=O)Nc3cccc4ccccc34)ccc2O[C@H]1CN(C)S(=O)(=O)c1cccs1,inactive: 1.04
2,COC(=O)[C@H](Cc1ccc(-n2cc(CCC(=O)NO)nn2)cc1)N[C@H](/C=C/C1CC1)[C@@H](O)Cc1ccccc1,inactive: 0.985
3,COc1cccc(OC[C@@H](O)CN(CCO)CCO)c1,inactive: 0.98
4,Cc1ccc(Nc2nc(-c3ccc(C)cc3)c(C)s2)cc1,inactive: 1.01
5,CN1C(=O)c2cc(NC(=O)C3CCOCC3)ccc2OC[C@@H]2O[C@H](CC(=O)NCc3ccccc3F)CC[C@@H]21,inactive: 0.996
6,C[C@H]1CCCCO[C@H](CN(C)S(=O)(=O)c2ccc(F)cc2)[C@@H](C)CN([C@@H](C)CO)C(=O)c2cc(NC(=O)C3CCCCC3)ccc2O1,inactive: 0.992
7,Cn1cnc(S(=O)(=O)N2C[C@@H](O)COC[C@@H]3O[C@H](CC(=O)NC4CCCC4)CC[C@H]32)c1,inactive: 0.952
8,Cc1noc(C)c1S(=O)(=O)N(C)C[C@H]1Oc2ccc(NC(=O)CCC(F)(F)F)cc2CC(=O)N([C@@H](C)CO)C[C@@H]1C,inactive: 0.979
9,C[C@@H]1CCCCO[C@@H](CN(C)Cc2ccccc2)[C@@H](C)CN([C@H](C)CO)C(=O)c2cc(NS(=O)(=O)c3ccccc3)ccc2O1,inactive: 0.961
10,COc1ccc(NC(=O)Nc2ccc3c(c2)C(=O)N([C@@H](C)CO)C[C@@H](C)[C@@H](CN(C)C(=O)C2CCCCC2)OCCCC[C@H](C)O3)cc1,inactive: 0.999
11,C=C(C)C(=O)NC(=O)/C=C/C,inactive: 0.962
12,C[C@@H]1COCCS(=O)(=O)N1C,inactive: 1.01
13,C=CCC[C@@H](Cc1ccc(F)cc1)C(=O)O[C@H](CNC(=O)[C@@H](CC=C)CC(=O)N[C@H](CO)Cc1ccccc1)c1ccccc1,inactive: 1.03
14,Cc1cc(C)n(C)c(=O)c1C(=O)O,inactive: 1.03
15,CC(=CCO)CCC(C)CCCC(C)CCCC(C)C (centres undefined),inactive: 1.04
16,O=C(CCCCCNC(=O)OCCCCO[C@H]1C[C@@H](c2coc3ccccc3c2=O)C=C(C(=O)N2CCOCC2)O1)NO,inactive: 0.995
17,CNC(=O)[C@H]1O[C@@H](n2cnc3c(NCc4cccc(I)c4)nc(Cl)nc32)[C@H](O)[C@@H]1O,inactive: 1.01
18,CC(C)NC(=O)Nc1ccc2c(c1)CC(=O)N([C@H](C)CO)C[C@H](C)[C@@H](CN(C)S(=O)(=O)c1ccc(Cl)cc1)O2,inactive: 0.998
19,O=C(C[C@H]1CC[C@H](NC(=O)Cc2ccccn2)[C@@H](CO)O1)NCCc1ccncc1,inactive: 1
20,O=C(C[C@H]1C[C@@H]2c3cc(NS(=O)(=O)c4ccccc4)ccc3O[C@@H]2[C@@H](CO)O1)NCC(F)(F)F,inactive: 0.985
21,COc1cccc(OCc2ccc(Cn3nc(NC(=O)NCc4ccc(F)cc4)c4ccccc43)cc2)c1,inactive: 1.01
22,CN(C)CCCNC(=O)[C@@H]1c2ccccc2C(=O)N(Cc2cc(C(F)(F)F)cc(C(F)(F)F)c2)[C@H]1c1ccc(CO)cc1,inactive: 0.978

row,SMILES,relative growth
1,CC(C)NC(=O)Nc1ccc2c(c1)C(=O)N([C@@H](C)CO)C[C@H](C)[C@@H](CN(C)Cc1ccc(Cl)c(Cl)c1)OCCCC[C@@H](C)O2,inactive: 0.971
2,Cc1ccc(S(=O)(=O)Nc2ccc3c(c2)C(=O)N([C@@H](C)CO)C[C@@H](C)[C@@H](CN(C)C(=O)CCC(F)(F)F)OCCCC[C@@H](C)O3)cc1,inactive: 0.983
3,C[C@H](O)C#Cc1ccc2c(c1)O[C@@H](CN(C)C(=O)C1CCCCC1)[C@H](C)CN([C@H](C)CO)S2(=O)=O,inactive: 0.877
4,COc1ccc(NC(=O)N[C@@H]2CC[C@H](CCNC(=O)CN3CCOCC3)O[C@@H]2CO)cc1,inactive: 0.991
5,CC(C)[Si](C#C[Si](C(C)C)(C(C)C)C(C)C)(O[C@H](C)c1cn([C@H](C)c2ccccc2)nn1)C(C)C,inactive: 0.959
6,C[C@H](CO)N1C[C@H](C)[C@@H](CN(C)C(=O)Nc2ccc3c(c2)OCCO3)OCc2cn(nn2)CCCC1=O,inactive: 0.986
7,CC(C)Cn1cnc2c(N)nc3ccccc3c21.Cl,inactive: 1.09
8,CC(C)(C)OC(=O)CC[C@]1(C(=O)NCCN2CCOCC2)COC(c2ccc(OCCCO)cc2)=N1,inactive: 0.88
9,C[C@@H]1CCCCO[C@H](CN(C)Cc2ccc(Cl)c(Cl)c2)[C@H](C)CN([C@@H](C)CO)C(=O)c2cc(NC(=O)NC3CCCCC3)ccc2O1,inactive: 1.02
10,Cc1cc(C(=O)N2CC[C@@]2(C)C(=O)NS(=O)(=O)c2ccc(C#N)cc2)nn1C,inactive: 1.02
11,COc1ccc(CN(C)C[C@H]2OCCCC[C@@H](C)Oc3ccc(NC(=O)CCC(F)(F)F)cc3C(=O)N([C@@H](C)CO)C[C@@H]2C)cc1,inactive: 0.995
12,C=CCN1C(=O)[C@]2(O[C@H](CCO)[C@@H]([Si](C)(C)c3ccc(OC)cc3)[C@@H]2C)c2cc(NC(=O)[C@H](C)O)ccc21,inactive: 0.992
13,CNC(=O)CN(C#N)c1nc(N(C)C)nc(N(C)C)n1,inactive: 0.941
14,CC1CCC(C(C)C)C(O)C1 (centres undefined),inactive: 0.933
15,C[C@H](CO)N1C[C@H](C)[C@H](CN(C)S(=O)(=O)c2ccccc2)Oc2c(NC(=O)c3ccncc3)cccc2C1=O,inactive: 1
16,C[C@@H]1CCCCO[C@H](CN(C)C(=O)CCC(F)(F)F)[C@@H](C)CN([C@H](C)CO)C(=O)c2cc(NS(=O)(=O)c3cccs3)ccc2O1,inactive: 1.01
17,Cn1c(=O)c(F)c(Nc2ccc(I)cc2F)c2c(=O)n(C[C@@H](O)CO)cnc21,inactive: 1.02
18,C[C@@H]1CN([C@H](C)CO)C(=O)c2cc(NS(=O)(=O)c3cccs3)ccc2O[C@@H](C)CCCCO[C@H]1CN(C)C(=O)NC1CCCCC1,inactive: 1
19,CO[C@H]1CN(C)C(=O)c2cc(NC(=O)C3CC3)ccc2OC[C@@H](C)N(C(=O)CN2CCOCC2)C[C@H]1C,inactive: 0.991
20,C[C@@H]1CCCCO[C@H](CN(C)Cc2ccc(C(F)(F)F)cc2)[C@@H](C)CN([C@H](C)CO)C(=O)c2cc(NC(=O)CCCCCC(=O)Nc3ccccc3N)ccc2O1,inactive: 1.03
21,Cc1noc(C)c1NC(=O)Nc1ccc2c(c1)C(=O)N([C@H](C)CO)C[C@H](C)[C@@H](CN(C)C(=O)Nc1ccc(F)cc1)OCCCC[C@@H](C)O2,inactive: 0.985
22,C[C@@H]1CN([C@@H](C)CO)S(=O)(=O)c2ccc(C#CCN(C)C)cc2O[C@@H]1CN(C)Cc1cccnc1,inactive: 0.993

row,SMILES,relative growth
1,C[C@@H]1CN([C@@H](C)CO)C(=O)CCCn2cc(nn2)CO[C@@H]1CN(C)C(=O)Nc1ccc(N2CCN(C)CC2)cc1,inactive: 0.988
2,COC(=O)C[C@H]1CC[C@H]2[C@@H](COC[C@@H](O)CN2S(=O)(=O)c2ccccc2C)O1,inactive: 1.02
3,O=[N+]([O-])c1ccc(/C=C/CN(C/C=C/c2ccc([N+](=O)[O-])cc2)CCNS(=O)(=O)c2cccc3cnccc23)cc1,inactive: 1.03
4,C[C@@H]1CCCCO[C@H](CN(C)C(=O)Nc2ccccc2)[C@H](C)CN([C@H](C)CO)C(=O)c2cc(NC(=O)Cc3ccccc3)ccc2O1,inactive: 1
5,CN(C)Cc1cn(CC[C@@H]2CC[C@H](NC(=O)Cc3cccnc3)[C@H](CO)O2)nn1,inactive: 1.01
6,C[C@H](CO)N1C[C@H](C)[C@@H](CN(C)S(C)(=O)=O)Oc2ccc(NC(=O)c3ccncc3)cc2CC1=O,inactive: 1
7,C/C=C/c1ccc2c(c1)O[C@@H](CN(C)S(=O)(=O)c1ccccc1)[C@@H](C)CN([C@@H](C)CO)S2(=O)=O,inactive: 0.922
8,O=C(CCCN1CCC(O)(c2ccc(Br)cc2)CC1)c1ccc(F)cc1,inactive: 0.928
9,CC(C)N1C[C@H](C)[C@@H](CN(C)Cc2ccc(Oc3ccccc3)cc2)Oc2c(NC(=O)c3cccnc3)cccc2C1=O,inactive: 1.07
10,COc1ccc(S(=O)(=O)N(C)C[C@H]2Oc3ccc(NC(=O)Cc4ccccc4)cc3C(=O)N([C@@H](C)CO)C[C@@H]2C)cc1,inactive: 1.02
11,C[C@@H]1CCCCO[C@@H](CN(C)C(=O)Cc2ccccc2)[C@H](C)CN([C@@H](C)CO)C(=O)c2cc(NS(=O)(=O)c3ccc(Cl)cc3)ccc2O1,inactive: 1.02
12,NCC[C@H]1CC[C@@H](NC(=O)Nc2ccc(F)cc2)[C@H](CO)O1,inactive: 1.01
13,C[C@@H]1CN([C@H](C)CO)C(=O)c2cc(NC(=O)Nc3ccc(F)cc3)ccc2O[C@H]1CN(C)C(=O)Nc1cccc2ccccc12,inactive: 1.02
14,C[C@@H]1CCCCO[C@H](CN(C)CC2CCCCC2)[C@@H](C)CN([C@H](C)CO)C(=O)c2cc(NC(=O)C3CCCCC3)ccc2O1,inactive: 1.01
15,C[C@@H]1CN([C@@H](C)CO)C(=O)c2cc(NC(=O)CCCN(C)C)ccc2O[C@H]1CN(C)C(=O)Nc1ccc(F)cc1,inactive: 1
16,CCCNC(=O)N1[C@@H]2Cn3c(cccc3=O)[C@H]1[C@@H](C(=O)NCC(F)(F)F)[C@@H]2CO,inactive: 1
17,COc1ccc(S(=O)(=O)N(C)C[C@@H]2Oc3ncc(-c4ccncc4)cc3C(=O)N([C@@H](C)CO)C[C@H]2C)cc1,inactive: 1.01
18,CC(=O)N1CCCN(S(=O)(=O)N2CCOCC2)CC1,inactive: 1.02
19,N[C@@H](C(=O)O)c1cc(O)cc(O)c1,inactive: 1.02
20,O=C(C[C@H]1CC[C@@H]2[C@H](COC[C@@H](O)CN2C(=O)c2ccncc2)O1)NC1CCC1,inactive: 1.02
